Results on 2 proteins are retold here after publication PMC10468125 (Science Advances, 2023).

This data set deals with the molecule itself. Kind of data set: cryo-EM structure.

B1: Connexin 32 (Cx32) W3S mutant (natural protein)
chain: not shown
For the protein B1, the binding result is reported as “binds”.

B2: Connexin 32 (Cx32) R22G mutant (natural protein)
chain: not shown
Turning to B2, the binding result is listed as “binds”.
